The values below come from the RNAGym collection of RNA variant scans (doi:10.1073/pnas.2313332121).

Variants at the floor of the assay are shown more often than the library holds them. Some results are limits rather than exact numbers.

Sequences and labels used below:
B1: TPR 5TU (parent)
chain: GGAUCUUCUCGAUCUAACAAAAAAGACAAAUCUGCCACAAAGCUUGAGAGCAUCUUCGGAUGCAGAGGCGGCAGCCUUCGGUGGCGCGAUAGCGCCAACGUUCUCAACUAUGACACGCAAAACGCGUGCUCCGUUGAAUGGAGUUUAUCAUG

This series covers variants of B1. The series is described as follows: polymerase ribozyme fitness, log enrichment relative to wild type (log ratio); higher = more active; in vitro selection for triplet polymerase activity. The method, boiled down:
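Fitness is a logarithmic measure of how a genotype enriched relative to the wild type, with replicate averages weighted by inverse variance. The logarithm uses base 2, and enrichment came from Illumina sequencing of input and output libraries. Those libraries were PCR-built, transcribed mutants of each subunit of a heterodimeric triplet polymerase ribozyme, passed through one triplicate in vitro selection round that included frozen incubation at −7 °C, gel excision of extended constructs and streptavidin-bead capture. Genotypes were kept only if they had ≥10 input reads and ≥1 read per output.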
In the case of G34A C76U C93A C116G A150C, the “polymerase ribozyme fitness (log ratio)” value was not above -4.2.
Under C32U C35U U55A G81A U82G C85A stands not above -4.2; under G34U A39U U53A A64U C116U U146G, not above -4.2.
As for G34A G67U U77C A89C U101G C116G U151C, the figure is not above -4.2.
Under U33G G50U C51G A52C C76A G92A C93A A98U stands not above -4.2; under G34A C54A U56A C96G G100A, not above -4.2; under U33G A49C U77C C131G, not above -4.2.
As to C32U U55A U56C G58C G62A A89G G100U U101G, the “polymerase ribozyme fitness (log ratio)” value is not above -4.2.
Under C32U C36A U55A U77G A91U G140U stands -3.95; under U33G U55A A66C G88C C123G U130G G136A C149A, not above -4.2; under U33G A41C U53A C75G G88A, not above -4.2.
As for G34A G92A C95U C123G A138U, the figure is not above -4.2.
As for U33G C95U A138C G141U, the figure is not above -4.2; as for U33A G46U C75A G140C, not above -4.2; as for G34C G84A C96A A121U, not above -4.2.
Turning to U33G G86U, the “polymerase ribozyme fitness (log ratio)” value is -3.95.
Take G34U: the “polymerase ribozyme fitness (log ratio)” value was -1.11.
As for G34A, the figure is -0.292; as for G34C, -1.49; as for C32U G46C G80C C87G C118G G124A C132G G152C, not above -4.2.
Under C32U G59C A89C G94C stands -3.87; under U33C G80U C93A U109G U111G, not above -4.2; under U33A U56C G58C G84A A91C G100U C103U, not above -4.2.
As for U33G C57U C95A C105U A119C, the figure is not above -4.2.
Consider U33G A49U A91G G152A, for which the “polymerase ribozyme fitness (log ratio)” value is not above -4.2.
With U33A C87U C131G A142G, the “polymerase ribozyme fitness (log ratio)” value is not above -4.2.
Consider G34U G68U C85U C95A, for which the “polymerase ribozyme fitness (log ratio)” value is not above -4.2.
Under U33A U77G C79G C96G U104A A142G U145A stands not above -4.2.
Under C32U G80U U102G A113U C125U G126A stands not above -4.2; under U33C G46A C54U U61A C105U C129A C132U G140U, not above -4.2.
Under G34U C54G C76G C93G C105G A110G A142C stands not above -4.2.
Regarding C32U C35U G50C U53A C96A C105U A119C U144G, the “polymerase ribozyme fitness (log ratio)” value was not above -4.2.
As for C32U A60U C69U C85U G100C A119U U130C U148G, the figure is not above -4.2; as for U33A G68A G94C A122U G124A U139C, not above -4.2; as for U33C A41U A49U G62C C95U U127G, not above -4.2.
Turning to G34U G50U A60U G94C A107C U144A, the “polymerase ribozyme fitness (log ratio)” value is not above -4.2.
Take G34A G42U C95G C116U: the “polymerase ribozyme fitness (log ratio)” value is not above -4.2.
As to C32U C51U C57U G86A U101C G136U, the “polymerase ribozyme fitness (log ratio)” value is not above -4.2.
As to G34A U55G G81A G126A A138G, the “polymerase ribozyme fitness (log ratio)” value was not above -4.2.
Under G34A C57G A66U A115U U134C A142U U148G stands -3.95.
Under G34A U78G G86U A106G A115G A120G stands not above -4.2; under U33C A49C G86A G88C, not above -4.2.
With U33C A91U C99U, the “polymerase ribozyme fitness (log ratio)” value is not above -4.2.
Under U33G G50C G67C U102A C108U U144A stands not above -4.2; under U33A C35U G58C G88C C103U, not above -4.2; under G34U A52U G58C C85G C87U U135C, not above -4.2.
Under C32U U55G stands -1.52; under C32U A49C G92U C99A A115G A147C, not above -4.2.
As for U33A, the figure is -3.29; as for U33G, -2.4; as for U33C C36U U56A G84U U90C A110C G143C, not above -4.2.
In the case of U33A A52G A60U G84A C95G U109G A115U G133U G140C U146G, the “polymerase ribozyme fitness (log ratio)” value is not above -4.2.
As for U33G A37U A60C C75U G94U C108U, the figure is not above -4.2.
As for U33A C69G C87G, the figure is not above -4.2.
Regarding G34A G65A C96U G136C, the “polymerase ribozyme fitness (log ratio)” value is not above -4.2.
As for G34C C54U A91U, the figure is not above -4.2; as for C32U G94U C116G, -3.95; as for U33A C54A C85U G88A, not above -4.2.
As for U33G G81A C93A A115U A119U, the figure is not above -4.2; as for C32U C54U, -1.22.
As for G34C G88U U144A, the figure is not above -4.2.
Regarding U33A A47C U56A A60C G67A C85U, the “polymerase ribozyme fitness (log ratio)” value was not above -4.2.
As for U33C G81C C93U C96A A150G, the figure is not above -4.2.
As for G34A C75G C129A G133C, the figure is not above -4.2; as for U33G A41U, not above -4.2; as for G34C C85A G126U A138G, not above -4.2.
As for U33A U55A U61A U82G C95G U135G U144G, the figure is not above -4.2.
With U33G A52G A73G G92C A107U C114U C125U U134C G141C, the “polymerase ribozyme fitness (log ratio)” value was not above -4.2.
As for C32G U61A G92U C131U, the figure is not above -4.2; as for U33A G50C U56A C76A G81C, not above -4.2; as for C32U C57G G58U G67A, not above -4.2.
Consider U33G U53G C54U G58A C69U C85A C114U U151A, for which the “polymerase ribozyme fitness (log ratio)” value was not above -4.2.
As for U33C C85U A119G, the figure is -3.71.
Under G34U G83U A115G U145G stands not above -4.2; under G34A C36G G58C C85G G136U A150C G152C, not above -4.2; under G34A C63U G70C U77G A91C A113U G133C G143U, not above -4.2.
Consider C32U C69A C85A A89U G141A U144A, for which the “polymerase ribozyme fitness (log ratio)” value is not above -4.2.
Under U33A A41U A64C C76A C95U G124U A138C stands not above -4.2; under U33G U44G G46U A47C A137G, not above -4.2; under U33A A52C C69U C79U C87A C129G, not above -4.2.
As for C35A A47C C105G A107G, the figure is not above -4.2.
As for G34A A41C U55A C103G C105U G136A, the figure is not above -4.2.
Turning to C35A A47C G86U, the “polymerase ribozyme fitness (log ratio)” value is not above -4.2.
